Where “and” joins values, the source holds several entries; their conditions need not be identical. Equal entries are not always repeated. Out of some 110,000 compounds screened, about 230 (0.21%) showed an effect of 50% or more. The list shows a part of the results.
Molecular target: DPAP1 (Plasmodium falciparum, UniProt Q8IIJ9)
Test: primary screen, percent inhibition; read by cleavage of a fluorogenic dipeptide substrate; higher = more effect of the substance
Set-up: species or system P. falciparum D10 trophozoite lysates; single well
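Note: 30 min substrate incubation versus DMSO and 10 µM JCP410 controls.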

Sequence of DPAP1 (Q8IIJ9 whole entry, looked up): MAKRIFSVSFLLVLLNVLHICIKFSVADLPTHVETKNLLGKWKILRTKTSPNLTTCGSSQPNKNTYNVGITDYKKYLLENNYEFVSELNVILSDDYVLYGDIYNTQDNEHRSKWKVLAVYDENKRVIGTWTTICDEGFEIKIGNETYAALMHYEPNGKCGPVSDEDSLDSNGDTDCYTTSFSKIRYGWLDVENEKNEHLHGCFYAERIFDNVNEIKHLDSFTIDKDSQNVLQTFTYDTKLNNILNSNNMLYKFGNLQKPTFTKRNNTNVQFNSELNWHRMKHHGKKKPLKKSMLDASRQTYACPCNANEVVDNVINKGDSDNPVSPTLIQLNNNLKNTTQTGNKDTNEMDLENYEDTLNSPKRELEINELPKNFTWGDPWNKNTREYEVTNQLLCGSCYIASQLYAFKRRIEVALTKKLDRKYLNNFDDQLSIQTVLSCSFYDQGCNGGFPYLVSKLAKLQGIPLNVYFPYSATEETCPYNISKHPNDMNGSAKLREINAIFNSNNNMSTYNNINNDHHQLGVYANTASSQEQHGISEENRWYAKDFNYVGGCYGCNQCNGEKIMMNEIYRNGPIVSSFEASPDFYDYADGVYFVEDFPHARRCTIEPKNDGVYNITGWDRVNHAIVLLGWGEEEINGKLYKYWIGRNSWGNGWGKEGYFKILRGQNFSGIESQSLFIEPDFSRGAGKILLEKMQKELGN

SMILES	% Inhibition @ 10 uM
COc1ccc(CNC(=O)c2nc(SC)ncc2Cl)cc1	2.19%
CC(C)c1ccccc1OCC(=O)N1CCc2ccccc21	-2.94%
Cc1c(CN(C)C(=O)Cn2nc(C(F)(F)F)c(Br)c2C)cnn1C	1.27%
COc1cc(Cl)cc(/C=C2\SC(c3ccccc3)=NC2=O)c1O	41.6%
O=C(Nc1cc(Cl)cc(Cl)c1)c1cccnc1	-6.82%
O=C(NCCc1ccc(Cl)cc1)c1ccc(CS(=O)Cc2ccc(Cl)cc2)o1 (centres unmarked)	5.91%
Cc1cc(=O)oc2cc(OCC3CC(c4ccccc4)=NO3)ccc12 (centres unmarked)	1.91%
COc1ccc(C(=O)N(Cc2ccc(C)o2)C2CCS(=O)(=O)C2)cc1 (centres unmarked)	-4.64%
CCOC(=O)C1CCCCN1Cc1ccc(OC)c(C)c1 (centres unmarked)	3.1%
c1ccc(C2C3=C(Nc4nc5ccccc5n42)c2ccccc2CCC3)cc1 (centres unmarked)	2.4%
Cc1ccccc1-c1nc(CS(=O)(=O)CC(=O)N2CCN(Cc3ccccc3)CC2)c(C)o1	-0.138%
CCCCCC1CC(O)C=C(C)C1C(=O)OC (centres unmarked)	3.25%
CC(NC(=O)Nc1cccc2ccccc12)(C(F)(F)F)C(F)(F)F	-2.6%
CCOc1ccc(CNCc2c(C(=O)O)n(Cc3ccc(F)cc3)c3cc(OC)ccc23)cc1	0.984%
COc1ccc(OCCCCS)cc1	-3.42%
Cn1c(=O)[nH]c(=O)c2c1ncn2Cc1ccccc1	-1.5%
CCCCn1c(C)c(C(=O)OCC)c2c(CN3CCOCC3)c(O)ccc21	-10.2%
COc1ccc(-c2nc(S)c3c(n2)Oc2cc(O)ccc2C3)cc1	9.17%
N#CC1=C(N)Oc2cc(N)ccc2C12C(=O)Nc1ccccc12 (centres unmarked)	-6.44%
CC(=O)c1c(N2CCN(c3ccc(F)cc3)CC2)nc(=S)n(-c2ccccc2)c1C	0.789%
O=C(C1CC(=O)N(c2ccccc2)C1)N(Cc1ccccc1)Cc1ccccc1 (centres unmarked)	6.35%
CCc1c(C)nc2ccc(OC)cc2c1Cl	4.52%
Cc1nn(-c2ccc(Br)cc2)c(O)c1/C=N/c1ccccn1	-0.413%
Cc1ccc(S(=O)(=O)N2CCC(C(=O)N(Cc3ccccc3)Cc3ccccc3)CC2)cc1	-3.41%
CN1CCN(CCCNC(=O)c2cc3sccc3n2C)CC1	-4.85%
Cc1nn(-c2ccccc2)c(C)c1C=O	0.569%

SMILES	% Inhibition @ 10 uM
COc1cccc(NC(=O)c2ccc(Cl)c(Cl)c2)c1	0.823%
O=C(COc1cccc2ccccc12)N1CCN(C(=O)COc2cccc3ccccc23)CC1	-2.03%
Cc1cc(OCC(=O)Nc2ccc(S(=O)(=O)N3CCCC3)cc2)cc(C)c1Cl	12.4%
COc1ccc(CCNC(=O)CN(C)c2nn3c(=O)cc(C)nc3s2)c(OC)c1	-0.281%
Cc1nn(CCC(=O)NCCCN2CCc3ccccc3C2)c(=O)c2nn(-c3ccccc3)c(C)c12	-7.13%
Cc1cn([C@H]2C=C[C@@H](CO)O2)c(=O)[nH]c1=O	-6.22% and -2.91%
Cc1nnc(NC(=O)CSc2nc(C(C)C)ccc2C#N)s1	-3.96%
CCN1CCN(c2ccc(NC(=O)C3CC=CCC3C(=O)O)cc2)CC1 (centres unmarked)	0.245%
CCCOc1ccccc1C(=O)N(Cc1ccccc1F)C1CCS(=O)(=O)C1 (centres unmarked)	0.366%
Nc1cccc(NC(=O)c2cccc(S(=O)(=O)Nc3cccc(N)c3)c2)c1	-0.0369%
COc1ccccc1C(=O)N[C@@H](CS(=O)(=O)Cc1ccccc1)C(=O)NCC#N	-3.49%
c1ccc2c(c1)nc(NC1CC1)c1nncn12	5.68%
CCCCCCOC(=O)c1[nH]ncc1[N+](=O)[O-]	2.13%
CNC(=O)c1c(-c2c(Cl)cccc2Cl)noc1C	0.132%
O=C1OC(c2ccc(F)cc2)=N/C1=C\c1ccc(Cl)cc1	-5.03%
CCOC(=O)C1=C(C)N=c2s/c(=C/c3ccccc3O)c(=O)n2C1c1cccs1 (centres unmarked)	21.4%
CCOC(=O)NC1c2ccccc2Oc2ccc(OC)cc21 (centres unmarked)	-5.62%
N#Cc1cc2c(nc1SC1CCCCC1O)CCCC2 (centres unmarked)	1.52%
Cc1ccc(-n2nc(C)c3c(C)c(CCC(=O)NC4CCCC4)c(C)nc32)cc1	0.953%
O=c1oc(-c2ccccc2)nc2sc3c(c12)CCCC3	-3.98%
COc1ccc(N(CC(=O)Nc2cccc(C)c2)S(C)(=O)=O)c(OC)c1	1.52%
CN(Cc1ccccc1)C(=O)CSc1c2c(nc3ccccc13)CCC2	-3.09%
CCOc1cccc(C(=O)Nc2c(C)ccc3nsnc23)c1	0.635%
COc1ccccc1-c1nnc2ccc3ccccc3n12	-2.98%
CSc1nn2c(=O)c(-c3ccccc3)nnc2s1	2.62%
CCOc1ccc(-n2c(SCC(=O)N3CCC(C)CC3)nc3nnc(C)c-3c2N)cc1	4.35%

SMILES	% Inhibition @ 10 uM
Fc1ccccc1N1CCN(Cc2cccc3ccccc23)CC1	-0.828%
CCOC(=O)C1=C(CN2CC(C)CC(C)C2)NC(=O)NC1c1ccccc1 (centres unmarked)	0.44%
OCCN(Cc1ccccc1)Cc1c(F)cccc1F	4.51%
Cc1ccc(OCC(=O)N(Cc2ccccc2)c2ccccn2)cc1C	-3.12%
CCC(C)Oc1ccc(/C=C2/NC(=O)N(Cc3ccccc3F)C2=O)cc1OC (centres unmarked)	-1.81%
COC(=O)c1ccc(-c2ccco2)n1CC(=O)c1ccccc1	-3.75%
C=CCOc1c(Br)cc(CNc2cccc(C(=O)O)c2)cc1OC	-3.43%
O=C(Nc1ccccc1C(=O)NCCO)c1ccco1	1.89%
COc1cc(-c2nc(-c3nonc3N)no2)cc(OC)c1OC	-2.14%
O=C(Nc1cccc(Cl)c1)NC1CCCCC1	-0.828%
CN1CCN(S(=O)(=O)c2ccccc2[N+](=O)[O-])CC1	1.83%
COc1cccc(C(=O)Nc2cc(C)cc(C)c2)c1	-7.46%
C=CCc1cc(/C=C2/C(=N)N3C=CSC3=NC2=O)cc(OC)c1OCc1ccc(C)cc1	1.96%
O=C1c2cccnc2C(=O)N1Cc1ccc(S(=O)(=O)N2CCC(Cc3ccccc3)CC2)s1	1.14%
O=C1N/C(=C/c2cc3c(cc2Cl)OCO3)C(=O)N1Cc1ccc(Br)cc1	-11.7%
CCCCNC(=O)c1nc2ncc(Br)cn2n1	-2.58%
CCC(C(=O)O)n1c2ccccc2c2cnn(C)c(=O)c21 (centres unmarked)	-0.0309%
COc1ccc(CCNC(=O)CN(C)S(=O)(=O)c2ccc3nc(C)sc3c2)cc1OC	-5.89%
CCOc1cc(C#N)c(NC(=O)c2ccccc2OCC)cc1OCC	-3.34%
Cc1cc(NC(=O)CSc2nc3ccc(Br)cc3c3nc4ccccc4n23)[nH]n1	8.15%
O=C(CCC1(c2ccccc2)C(=O)c2ccccc2C1=O)NCCN1CCOCC1	-6.94%
CC1CCCC(NC(=O)C2(C)CCC(=O)N2CCc2ccc(Cl)cc2)C1C (centres unmarked)	0.387%
N#CCNC(=O)[C@H](CC1CCCCC1)NC(=O)c1cccc(C(=O)O)c1	-3.49%
CC1CC(Nc2ccccc2)c2ccccc2N1C(=O)C1CCCO1 (centres unmarked)	-0.0953%
COc1ccccc1N1CCN(C(=O)Nc2ccccc2)CC1	1.4%
O=C(NCCc1ccccc1)c1cc([N+](=O)[O-])ccc1Cl	2.13%

SMILES	% Inhibition @ 10 uM
CC(C)NC(=O)C(=O)c1c(-c2ccccc2)[nH]c2ccccc12	-0.834%
Cc1c2cnn(CC(=O)NCCC3=CCCCC3)c(=O)c2c(C)n1Cc1ccccc1F	-0.447%
CC(C)(C)OC(=O)NC1CCN(S(=O)(=O)c2cccc(S(=O)(=O)N3CCOCC3)c2)CC1	19.6%
NC(=O)C1CCN(C(=O)CN2C(=O)c3ccccc3S2(=O)=O)CC1	4.18%
COc1ccc(CN2CCN(Cc3ccc(Br)cc3)CC2)cc1OC	1.35%
O=C(CCn1nc(-c2ccc(Cl)cc2)ccc1=O)NCc1cccnc1	-1.79%
COc1ccccc1NC(=O)c1ccc(C)c(Cl)c1	-18.8%
O=S(=O)(c1ccccc1)c1nnn2c1nc(NCc1ccc(F)cc1)c1ccccc12	-6.68%
Cc1ccc(CSc2nc3ccc(C(=O)NCCN4CCCC4)cc3n2C)cc1	3.13%
COCCCNc1nc2c(S(=O)(=O)c3ccccc3)nnn2c2ccsc12	-2.85%
Cc1cccc(C(=O)Nc2ccc(C)cc2[N+](=O)[O-])c1	0.135%
CC1=NN(C(=O)c2ccc(N)cc2)C(O)(c2ccc(Cl)cc2)C1 (centres unmarked)	6.82%
O=C1c2ccccc2C(Nc2cccnc2)N1c1cccnc1 (centres unmarked)	-1.03%
CCn1c(O)nc2ccc3c(c21)C(=O)c1ccccc1C3=O	-1.82%
COc1ccc(C2=N/C(=C/c3ccc(F)cc3)C(=O)O2)cc1Br	1.45%
CCOc1ccccc1C(=O)Nc1cccc(-c2nc3ccccc3o2)c1	1.03%
CC1=CN2C(=O)C(Cc3ccccc3)(NC(=O)c3ccccc3)N=C2C=C1 (centres unmarked)	1.03%
O=C(NCCc1ccccc1)Nc1cccc(Cl)c1	-8.76%
CCc1ccccc1Oc1coc2cc(OC)ccc2c1=O	-2.98%
COCCCNC(=O)CN(c1ccc(C)c(Cl)c1)S(C)(=O)=O	-7.84%
CCc1ccc(-n2nc(C)c3c(C(F)(F)F)cc(=O)n(CC(=O)N4CCOCC4)c32)cc1	2.14%
CCOC(=O)c1[nH]c(C)c(C(=O)CCc2ccccc2)c1C	-0.693%
O=C(c1ccco1)N1CCN(C(=O)c2cnn(-c3ccccc3)c2-n2cccc2)CC1	1.8%
